In a collection of fitness landscapes (doi:10.1016/j.celrep.2020.107928):
Over roughly 81,000 sequences, “one-hybrid fitness for binding NBS DNA” has its median near -0.1; the highest 2% begin near 0.36. The list shows a part of the results.

B1: Caulobacter ParB omega fusion; a variant is named by its letters at X, in order, B8GW30 (parent)
chain: MESVVVGEPGMSEGRRGLGRGLSALLGEVDAAPAQAPGEQLGGSREAPIEILQRNPDQPRRTFREEDLEDLSNSIREKGVLQPILVRPSPDTAGEYQIVAGERAWRAAQRAGLKTVPIMVRELDDLAVLEIGIIENVQRADLNVLEEALSYKVLMEKFERTQENIAQTIGKSXSHVANXMRLLXLPDEVQSYLVSGELTAXHARAIAAAADPVALAKQIIEGGLSVRETEALARKAPNLSAGKSKGGRPPRVKDTDTQALESDLSSVLGLDVSIDHRGSTGTLTITYATLEQLDDLCNRLTRGI

Variants of: B1
Test: one-hybrid fitness for binding NBS DNA (the Noc-binding site; scaled: cognate 1, non-cognate 0); higher = stronger binding
Conditions: with NBS DNA site
Summary of the method: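 On M9-minus-histidine containing 0.1 mM IPTG and 5 mM 3-AT, E. coli USO cells with a HIS3 reporter, site 19 bp from the promoter, grew 48 hours at 37°C to select Caulobacter ParB libraries randomised at four specificity codons. Plasmids from before and after were Illumina-sequenced, with three replicate libraries pooled and variants under 10 reads left out. Fitness is the log change in variant-to-wild-type read ratio, rescaled against cognate and non-cognate.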

one-hybrid fitness for binding NBS DNA, 0.261:
ETRR

one-hybrid fitness for binding NBS DNA, 0.438:
RRKK

one-hybrid fitness for binding NBS DNA, 0.413:
QLST

one-hybrid fitness for binding NBS DNA, 0.289:
QRFC

one-hybrid fitness for binding NBS DNA, ≤ 0.2:
TTMR
GNDL
SYNG
NETS
KYGS
CPPG
PRLG
TSRA
RIKV
KQEG
WTSA
YCSD
RVDH
QSDC
WIIS
WYWG
RLDE
YMTD
PYIR
LRER
HPNV
RCLH
WNMG
SDNY
HKFW
TLAW
SATC
HARN
DEAG
KAGI
AFLD
QVHK
SANR
LHPC
YTRA
TLCV
SQKT
ATAS
MLYR
PVRN
HASG
GRHD
YSEC
LKHE
LLSA
AGKQ
PPFC
QLPW
HLWG
MAAL
HCMV
TGIN
VQQL
MSQC
IPYV
VCHQ
SKQR
RMWG
DHCV
LGLG
QLMW
VCAG
QWKQ
QPGL
GQQA
PMCR
RSDQ
LKKT
SMHG
SWRQ
NPCT
NHIP
YWAG
YMER
TTQM
RNAP
QVSD
TCCD
TRVL
DQVG
CSLG
WRQR
TASA
LVTR
GPVG
YSDF
SDWD
DFMT
LIAF
WTLI
LRGI
YCHN
LMQW
WQKT
EAVW
HEHT
PWVR
DVFG
TNLE
LENL
CLYC
LEML
FCYR
GPDC
GKMR
QGYS
IDLD
GLPR
GLVD
YPKN
SYAC
DRSR
NWMS
LHCQ
LGPV
VILT
NRVR
AMVC
SMPF
RSPL
GSFR
TKES
HAAV
NVVC
HSNR
SFGA
IRGY
SDWS
RPHP
DYII
TNYA
VDPR
RHWE
RFQV
LDGR
NNDF
TLSW
LSQG
NANS
GRIS
LTHE
TVLI
APSM
PYAH

one-hybrid fitness for binding NBS DNA, 0.572:
KRAT

one-hybrid fitness for binding NBS DNA, 0.373:
RYGT

one-hybrid fitness for binding NBS DNA, 0.797:
QRAT

one-hybrid fitness for binding NBS DNA, 0.262:
EFER

one-hybrid fitness for binding NBS DNA, 0.608:
QCKA
